# ± gives the standard deviation of the averaged measurements. The list shows a part of the results.
# Tested on: PfAP2-LT AP2 domain (GST-tagged)
# Test: gcPBM binding intensity (ln(normalized median fluorescence intensity)); higher = stronger DNA binding
# Procedure, shortened: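 The highest Masliner-normalised natural-log median intensity across replicate spots of either probe orientation is reported as binding intensity. GST-tagged P. falciparum DNA-binding domains expressed in E. coli were applied for 1 h to an Agilent 4 × 180k array of primer-extended double-stranded 36-bp intergenic genomic probes plus negative controls, and bound protein was detected with Alexa488 anti-GST antibody and scanned at 488 nm.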
row,Sequence,gcPBM binding intensity (ln)
1,TTTTGTTATATACAATAGATCAGAAGAAATGAAGTT [CACACA_negctrl_site1579],8.5 ± 0.4
2,CTTACGTATTAAGTGTGTCCGTAGTGTTCATAGTTC [XGTACX_site8913],9.1 ± 0.35
3,CAATGTTAACATATTACACACATATGTATATAGAAT [CACACA_site2732],9.15 ± 0.38
4,TGTACGAGTCGTAGAGTGCAGTCTGGAGAAGAGTAC [GTGCAC_site9684],9.11 ± 0.51
5,AAAATTTATAAAAGCACACAAAATAAAAAAAAATGA [CACACA_site1491],8.88 ± 0.46
6,TATATATGTATATATTTTATAAGTATGCAAGAAAAT [TGCATGCA_negctrl_site486],8.65 ± 0.4
7,ATATTGGAATAAATTTGTACATATATATATTATTCA [XGTACX_site916],8.7 ± 0.44
8,ACATAATGCTAGACACGTACGTACATCCGTGAGGTT [XGTACX_site4156],9.16 ± 0.4
9,TGAACTCAACAAAGGGTGCATAACAAAAATAGACGT,9.1 ± 0.52
10,TTATTATTATATTCTACATGCAGTTTGTGTAGAACA [TGCATGCA_site455],8.66 ± 0.38
11,GTAAAAGAACGGCATGCATGAAAAATATTACACATG [TGCATGCA_site143],9.23 ± 0.42
12,AATATATGGTTTCATGATATTAAATACAATTTAATG [CACACA_negctrl_site1503],8.46 ± 0.35
13,ATATATATATGTATATGTACTTATATTATTGTTTGT [XGTACX_site1466],9.05 ± 0.31
14,CTATAATTATGATGAAGTACATATGAGTTCAAAAAA [XGTACX_site3070],8.65 ± 0.53
15,AAAGTAAATTTAAGCACACACAACGAATTTTTATAC [CACACA_site1959],9.34 ± 0.45
16,TTTCAATAATAAAAAACACACACAAAAAAAAATAAT [CACACA_site8905],9.38 ± 0.47
17,AAAAATATAAACACCAGTACACAAACCTATAATGGA [XGTACX_site3846],9.21 ± 0.45
18,ATATATATACTGTGTACACAAATATATATTATATAT [CACACA_site6104],8.93 ± 0.38
19,AAAAATAAAAAAAGCACACACATATAAATAAATATA [CACACA_site6968],9.38 ± 0.35

row,Sequence,gcPBM binding intensity (ln)
1,TAATTTTTCTTTTATTAACACACATATAAATAAATA [CACACA_site8935],8.41 ± 0.36
2,CCCAATAATTAAACAACACACATATTTATAGGTAAT [CACACA_site7445],9.31 ± 0.27
3,TATATGACAAGATAAAGTACAAATTTGTATATATAT [XGTACX_site3027],9.04 ± 0.37
4,ATATATTTATATATTACACACAATATTGTAGACATA [CACACA_site4669],8.87 ± 0.32
5,GAAAGAAATAAAGGTGGTACATAAATAAAAACTAAG [XGTACX_site4826],8.95 ± 0.67
6,TGTAGTCTGGAGAAAAGTACATAGTATCTGGTAGCT [XGTACX_site2031],8.82 ± 0.39
7,AAATTCCACGGACACACACACATATAAATAAATAAA [CACACA_site4811],9.74 ± 0.47
8,TTTACACGTACGTGTACACACAAAAATATGTTTTTA [CACACA_site995],8.81 ± 0.38
9,ATTTATATGGTTTGCACACATAACAACTATGGTTAT [CACACA_site3632],9.45 ± 0.33
10,AACATAAAAAAAATATGTACATATATAATATATATA [XGTACX_site3764],8.82 ± 0.49
11,TAAAATAAAAAGTTTACACACATATATAATTTTAAT [CACACA_site662],8.74 ± 0.42
12,AACCATTTTAAATATGCACACAGATGCACTAACACA [CACACA_site8565],9.26 ± 0.24
13,GAATTATATAATTAAAGTACATTGTTTATATAATCA [XGTACX_site7246],8.52 ± 0.51
14,TCCTTTCAACCATATATAATGACATGTACTCAAAAA [GTGCAC_negctrl_site417],8.56 ± 0.45
15,CATCCATATAAAATATGTACATATATATATATATAT [XGTACX_site5859],9.535 ± 0.064
16,TATTTTAGTAAAGGTGGTACTTTTAAGTTCATGTAT [XGTACX_site1854],8.67 ± 0.48
17,AAAAAAAAAGAAAAATGTACATACATAAATATATAT [XGTACX_site5664],8.84 ± 0.57
18,ATTATAAACCATAATTAACACACAAAATAAGTTACA [CACACA_site9057],8.96 ± 0.39
19,ATTCTATTTTTTATAAAACCATGTCATCAACATAGG [CACACA_negctrl_site237],8.46 ± 0.6

row,Sequence,gcPBM binding intensity (ln)
1,AAAAAAAAAAAAAAAAGTACACAAATAGATTTATAT [XGTACX_site3727],8.49 ± 0.53
2,TCGTGAGAAAATATTACACACATTTACTATAGTATC [CACACA_site3444],9.05 ± 0.43
3,TTTTTTAAAGATTACTCAAAAAAATAAAAAAATAAA [GTGCAC_negctrl_site222],7.92 ± 0.53
4,TTTTTTTTTTTTTTTTGATACATTAACCTACAATGG [GTGCAC_negctrl_site625],8.27 ± 0.52
5,TGAGTTCAACAAAGACGTACAAAACCAAAAATATAA [XGTACX_site8931],8.88 ± 0.57
6,TATATATCAAGACACACACACATATATTTATTTATA [CACACA_site7733],9.55 ± 0.34
7,GATAATTTATTTTTTCGTACACAAAATATAATATAT [XGTACX_site1470],8.45 ± 0.42
8,TATATATATATATTCACACATATAGTATTGTATTTA [CACACA_site5147],9.14 ± 0.2
9,TATATTTTATATTAGTGTACAAATTTCATTTTTCAT [XGTACX_site2204],8.6 ± 0.54
10,AATATATATAAAAAAGTGCATTAGGATAACCATATA [GTGCAC_site9590],8.88 ± 0.39
11,AAGAAGAAAAACCATTGTACGAACTAACATATATAA [XGTACX_site3226],8.83 ± 0.55
12,GGTATACATAATACTTGTACTAGGCAACAATAAGAT [XGTACX_site1437],9.09 ± 0.4
13,TGTTAAAAGAAAAAAAGTACAAAAAATTATACATTT [XGTACX_site467],8.45 ± 0.47
14,ATATATTTATATTTGTGTACATATTTATTATATTTA [XGTACX_site404],8.91 ± 0.49
15,ATTTGTGACCACACAAATAAATAAATAAAAAAAAAA [TGCATGCA_negctrl_site328],8.54 ± 0.61
16,AATATGAATATCTATACACACACATATATATACACA [CACACA_site8459],9.45 ± 0.26
17,TAATAATAGAAACACACACACATTTTTAATAATACA [CACACA_site1216],9.74 ± 0.34
18,TTTTATTTTTATAACAGTACATAAGTAATTGTTCAA [XGTACX_site7574],8.49 ± 0.43

# From the supplement of paper PMC11417369
